Test results as given in PubChem BioAssay AID1645887 (National Center for Advancing Translational Sciences (NCATS), 2021).
Values joined by “and” are separate entries in the source; they are usually repeats but may differ in a detail not shown here. Equal values may be shown once. Among all 16,000 compounds or so, about 40 (0.2%) were called active. Inconclusive results (about 1%) are left out. Calls come from the whole dose curve; as a rule, active = well fitted activation curve with a large enough effect; inconclusive = small, poorly fitted or top-dose-only effect, or another doubt; inactive = no such curve, though single readings can be large or run the other way. The list shows a part of the results.

Target: Rap guanine nucleotide exchange factor 4 (Homo sapiens) (UniProt Q8WZA2)
Test: Validation qHTS for agonist of cAMP-regulated guanine nucleotide exchange factor 4 (EPAC2);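 note: exchange makes BODIPY-GDP fluorescence drop when released from Rap1B; series mostly up to about 150 µM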
Conditions: EPAC2 Rap1B BODIPY-GDP exchange, fluorescence; activation: hits give high values
Method in brief: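 Fluorescent exchange assay: 100 nM EPAC2 with 250 nM RAP1B-BODIPY-GDP and 50 uM GDP; compound added, 5 min at room temperature, then read (ex 480/em 540 nm) every 5 min for 30 min. Normalized to 6.5 mM cAMP agonist control.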
% is set by controls: 0 for no effect and ±100 for the full control effect.

UniProt Q8WZA2, sequence (Q8WZA2 whole entry, looked up): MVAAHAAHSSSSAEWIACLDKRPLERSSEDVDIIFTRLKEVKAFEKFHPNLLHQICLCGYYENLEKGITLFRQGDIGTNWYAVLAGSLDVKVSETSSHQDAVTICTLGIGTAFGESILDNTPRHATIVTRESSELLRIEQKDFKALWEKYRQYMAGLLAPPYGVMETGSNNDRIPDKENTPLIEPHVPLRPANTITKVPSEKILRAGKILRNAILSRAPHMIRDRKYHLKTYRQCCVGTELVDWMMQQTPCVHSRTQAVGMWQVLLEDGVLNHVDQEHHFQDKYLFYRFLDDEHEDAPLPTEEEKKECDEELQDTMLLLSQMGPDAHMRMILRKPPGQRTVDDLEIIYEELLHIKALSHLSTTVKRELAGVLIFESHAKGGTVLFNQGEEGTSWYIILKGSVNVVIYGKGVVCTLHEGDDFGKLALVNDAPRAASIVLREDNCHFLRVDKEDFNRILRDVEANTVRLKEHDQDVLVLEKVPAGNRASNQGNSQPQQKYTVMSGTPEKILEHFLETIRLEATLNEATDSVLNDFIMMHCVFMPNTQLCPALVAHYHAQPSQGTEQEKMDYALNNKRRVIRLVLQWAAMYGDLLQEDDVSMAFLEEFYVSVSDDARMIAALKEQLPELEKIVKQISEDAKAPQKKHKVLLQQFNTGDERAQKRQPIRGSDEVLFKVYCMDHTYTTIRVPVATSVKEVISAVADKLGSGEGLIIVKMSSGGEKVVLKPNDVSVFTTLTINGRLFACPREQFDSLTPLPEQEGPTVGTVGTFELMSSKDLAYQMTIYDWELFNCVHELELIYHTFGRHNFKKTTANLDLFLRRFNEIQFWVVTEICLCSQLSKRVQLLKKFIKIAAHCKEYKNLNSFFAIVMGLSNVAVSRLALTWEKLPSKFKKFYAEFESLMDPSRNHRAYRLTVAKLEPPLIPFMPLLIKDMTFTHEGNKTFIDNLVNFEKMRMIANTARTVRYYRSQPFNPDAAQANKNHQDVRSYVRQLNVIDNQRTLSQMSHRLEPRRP

Row | SMILES | activation
1 | C=C1C2C[C@]3(C4CC5[C@@]6(C)CC[C@H](O)[C@@]5(C3CC2=O)C4[N+]([O-])(CC)C6)[C@@H]1O (some centres undefined) | inactive: -15.8%
2 | COc1ccc2[nH]c3c(c2c1)CCNC3C (centres undefined) | inactive: 6.15%
3 | COc1ccc(C(CN(C)C)C2(O)CCCCC2)cc1 (centres undefined) | inactive: -16.7% and inactive: -27.9%
4 | CCCSc1cc(OC)c(CCN)cc1OC | inactive: -9.14%
5 | CN1CC[C@@]2(CCCN(C(=O)c3csnn3)C2)C1 | inactive: -14.9%
6 | CCN(CCCl)Cc1ccccc1Br | inactive: -34.3%
7 | C[N+]1(C)[C@@H]2CC[C@H]1CC(OC(=O)c1c[nH]c3ccccc13)C2 (some centres undefined) | inactive: -9.27%
8 | Cc1o[nH]c(=O)c1CC(N)C(=O)O (centres undefined) | inactive: -17.5%
9 | NC(Cc1ccc(N(CCCl)CCCl)cc1)C(=O)O (centres undefined) | inactive: -4.68% and inactive: -17.5%
10 | CC1(C)C(C(Cl)Cl)C2(Cl)C(Cl)C(Cl)C1(Cl)C2(Cl)Cl (centres undefined) | inactive: -2.28%
11 | C/C=C1/CN2CC[C@]34C(=C(C=O)[C@H]1C[C@@H]23)Nc1ccccc14 | inactive: -5.48%
12 | CCN(CC)CCOC(=O)C(O)(c1ccccc1)c1ccccc1 | inactive: -14.2%
13 | N[C@H](CCP(=O)(O)O)C(=O)O | inactive: -1.18% and inactive: 9.83%
14 | CC(C)(C)OC(=O)c1ncn2c1[C@@H]1CCCN1C(=O)c1c(Br)cccc1-2 | inactive: 8.19%
15 | OC(c1ccccc1)(c1ccccc1)C1CN2CCC1CC2 (centres undefined) | inactive: -24.9%
16 | NP(N)(=O)NC(=O)c1ccc(F)cc1 | inactive: -18.3%
17 | O=C(C[C@@H]1NCCC[C@H]1O)Cn1cnc2cc(Br)c(Cl)cc2c1=O | inactive: -11%
18 | CC[n+]1c(-c2ccccc2)c2cc(N)ccc2c2ccc(N)cc21 | inactive: -1.34% and inactive: 17.4%
19 | N[C@H](CP(=O)(O)O)C(=O)O | inactive: -9.91%
20 | C[C@]12CC[C@H]3[C@@H](C[C@H](F)C4=CC(=O)CC[C@@]43C)[C@@H]1CC[C@@H]2O | inactive: -9.66%

Row | SMILES | activation
21 | Oc1ccc2c3c1O[C@H]1c4oc5ccccc5c4C[C@@]4(O)C(C2)N(CC2CC2)CCC314 (some centres undefined) | inactive: -20.4%
22 | COc1cc2c(cc1OC)[C@@H]1C(=O)c3ccc(OC)c(CC=C(C)C)c3OC1CO2 (some centres undefined) | inactive: -16.7%
23 | CCCCC1C(=O)NC(=O)N(C2CCCCC2)C1=O (centres undefined) | inactive: -20.5%
24 | COc1ccc(C(=O)O)cc1OC | inactive: -16.7%
25 | COc1ccc2[nH]cc(C3=CCNCC3)c2c1 | inactive: -16.8% and inactive: -4.47%
26 | C(=C/c1ccccc1)/CN1CCN(CCOC(c2ccccc2)c2ccccc2)CC1 | inactive: -25.9%
27 | NCC(=O)c1ccccc1 | inactive: -19.6%
28 | Clc1ccc(C(Cn2ccnc2)OCc2csc3c(Cl)cccc23)c(Cl)c1 (centres undefined) | inactive: 0.0963%
29 | CCOC(=O)c1ncn2c1CN(C)C(=O)c1c(I)cccc1-2 | inactive: -28.4%
30 | O=C(Nc1ccccc1)N1CC[C@@]2(CCCN(C(=O)Oc3ccccc3)C2)C1 | inactive: 2.28%
31 | O=C(O)Cc1ccccc1 | inactive: -8.91%
32 | ClC(Cl)(Cl)Cl | inactive: -7.71%
33 | Clc1cccc(SC2CCNCC2)n1 | inactive: -20.4% and inactive: -10.4%
34 | CCNC(=O)[C@@H]1O[C@@H](n2cnc3c(N)ncnc32)[C@H](O)[C@H]1O | inactive: -13.5%
35 | O=C(O)[C@H]1[C@H]2CN[C@H](C(=O)O)[C@H]21 | inactive: -11.4% and inactive: 8.11%
36 | COc1ccc(C(=O)c2c(C)n(CCN3CCOCC3)c3ccccc23)cc1 | inactive: -11.4%
37 | CNC(=O)OCC[N+](C)(C)C | inactive: 0.434%
38 | CN1C(=O)[C@@H](NC(=O)c2cc3ccccc3[nH]2)N=C(c2ccccc2)c2ccccc21 | inactive: 8.25%
39 | c1cc2c(c(N3CCNCC3)c1)OCCO2 | inactive: -19.3%
40 | CC1(C)C(=O)[C@@H]2OC2[C@@]2(C)C1CC(O)[C@]1(C)C2CC[C@@]2(C)C(c3ccoc3)OC(=O)C3OC312 (some centres undefined) | inactive: -14%

Row | SMILES | activation
41 | O=c1c(O)c(-c2ccc(O)c(O)c2)oc2c(O)c(O)cc(O)c12 | inactive: -5.57%
42 | CC1=C(O)C(=O)[C@H]2O[C@@H]2C1=O | inactive: -11.6%
43 | O=C(c1csnn1)N1CCC[C@@]2(CCN(Cc3ccncc3)C2)C1 | inactive: -28.1%
44 | CCNCC(O)c1cccc(O)c1 (centres undefined) | inactive: -7.06%
45 | O=C(CS(=O)C(c1ccccc1)c1ccccc1)NO (centres undefined) | inactive: -8.15%
46 | CCOC(=O)[C@]12Cc3cc(N(C)C)ccc3[C@H]1N(Cc1ccccc1)C(=O)c1ccccc12 | inactive: -6.96%
47 | CN1CCc2cc3c(cc2C1O)OCO3 (centres undefined) | inactive: -1.21%
48 | CP(=O)(O)CCCN | inactive: -14.8% and inactive: -5.67%
49 | C[C@@]12CCC(O)C[C@H]1CCC1C2CC[C@]2(C)C(=O)CCC12 (some centres undefined) | inactive: 0.289%
50 | COc1cc2c(cc1O)-c1c(O)c(OC)cc3c1[C@H](C2)N(C)CC3 | inactive: 8.4%
51 | COC1=CC23CCCN2CCc2cc4c(cc2C3C1O)OCO4 (centres undefined) | inactive: -0.996%
52 | CC(n1cc(C[C@H](N)C(=O)O)c2ccccc21)n1cc(C[C@H](N)C(=O)O)c2ccccc21 | inactive: -7.56%
53 | C[C@H]1CC[C@@H]2N(C1)C[C@H]1[C@@H]3C[C@H]4[C@@H](CC(=O)[C@H]5C[C@@H](O)CC[C@@]54C)[C@@H]3CC[C@H]1[C@]2(C)O | inactive: 4.31%
54 | CC(C)NCC(O)c1ccc(N)c(C#N)c1 (centres undefined) | inactive: -0.359% and inactive: 11.4%
55 | CCC(OC(C)=O)C(CC(C)NC)(c1ccccc1)c1ccccc1 (centres undefined) | inactive: 5.14%
56 | CNCC(O)c1ccc(O)cc1 (centres undefined) | inactive: -12.7% and inactive: -40.4%
57 | CC(=O)C1CC[C@H]2C3CC[C@@H]4CC(O)CC[C@@]4(C)C3CC[C@]12C (some centres undefined) | inactive: 3.26%
58 | c1ccc(N2CCCC3(CCNCC3)C2)cc1 | inactive: -17%
59 | O=C(Cc1ccc(Cl)c(Cl)c1)N1CCCCC1CN1CCCC1 (centres undefined) | inactive: 3.99% and inactive: -12.6%
